# The campaign covered roughly 44,000 compounds. About 340 (0.77%) were called active. Inconclusive results (about 5%) are left out. Calls follow the shape of the dose curve; as a rule, active = well fitted inhibition curve with a large enough effect; inconclusive = small, poorly fitted or top-dose-only effect; inactive = flat fitted curve, though single readings scatter. The list shows a part of the results.
# Test: Acumen qHTS Assay for Inhibitors of the mTORC1 Signaling Pathway in MEF (Tsc2-/-, p53-/-) Cells: Sytravon;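 also: plate controls were DMSO for no effect and rapamycin for full effect; nearly all actives have a fitted effect of over 50% in size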
# Conditions: phospho-rpS6 immunofluorescence/PI, 24 h; series mostly up to 38.3 µM; activity change, negative = inhibition: at the top concentration
# How it was run: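 Immunofluorescence of rpS6 phosphorylation in Tsc2-/-, p53-/- MEFs after 24 h compound exposure, normalized to propidium iodide signal. Activity is expressed as % positive cells, thresholded with 7.5 nM rapamycin.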
row,SMILES,"activity change, negative = inhibition"
1,Cc1cccc(Nc2nc(C)nc(N)c2S(=O)(=O)c2ccccc2)c1,inactive: -0.398%
2,Cc1c(C2=CCN(S(=O)(=O)c3ccc(Br)cc3)CC2)c2ccccc2n1CC(=O)N1CCCC1,inactive: 0.537%
3,CCOc1ccc(NC(=O)CN(Cc2ccccc2)S(=O)(=O)c2ccc(Cl)cc2)cc1,inactive: 3.52%
4,COc1ccc2nc3oc(C(=O)Nc4cccc(C(F)(F)F)c4)cc3cc2c1,inactive: -4.89%
5,Cc1cc(C)cc(NS(=O)(=O)c2ccc3c(c2)OCC(C(=O)N2CCCC2)O3)c1 (centres undefined),inactive: -14.5%
6,Cc1ccccc1CN1CCc2nc(N3CCN(c4ccccn4)CC3)ncc2C1,inactive: 0%
7,Cc1ccc2nc(-c3ccc(C)c(NC(=O)Cc4ccccc4)c3)oc2c1,inactive: 5.17%
8,CCCC12CN3CC(C)(CN(C1)C3c1ccccc1Cl)C2=O (centres undefined),inactive: -6.63%
9,CCc1c(C)sc2c1CCN(C(=O)Nc1ccccc1C(=O)OC)C2c1ccc(F)cc1 (centres undefined),inactive: 0%
10,CCNC(=O)c1c(NC(=O)COc2ccc(F)cc2)sc2c1CCCC2,inactive: 17%
11,O=C(Nc1ccc(Br)cc1)N1CCC(CN2CCCC2)CC1,inactive: -0.31%
12,CCOc1ccc(C2C(C(=O)Nc3ccc(OC)cc3)=C(C)Nc3nc(SCc4ccc(Cl)cc4)nn32)cc1 (centres undefined),inactive: 8.46%
13,COc1ccc(N2CCN(CCCNC(=O)c3ccc4nc(CCc5ccccc5)oc4c3)CC2)cc1,inactive: -17.7%
14,Cc1ccccc1NC(=O)CS(=O)(=O)c1cccc2nsnc12,inactive: 1.44%
15,Cc1c(Cl)cccc1NC(=O)c1ccc(NC(=O)N2CCSc3ncccc32)cc1,inactive: -1.72%
16,CCCc1ccc(OCC(=O)Nc2scc(-c3cccs3)c2C(=O)OC)cc1,inactive: -1.84%
17,COc1ccc2c(c1)CC(C(=O)NCCN1CCN(c3cccc(Cl)c3)CC1)CO2 (centres undefined),inactive: -17.4%
18,O=C(c1ccc2c(c1)N(Cc1ccc(F)cc1)CCS2)N1CCN(c2ccccc2)CC1,inactive: -16.3%
19,Cc1nc(Oc2ccccc2C)c2oc3ccccc3c2n1,inactive: -0.216%
20,Cc1ccc(CNC(=O)c2sc3nc4n(c(=O)c3c2C)CCCC4)cc1,inactive: 9.45%
21,COc1cc(CNC(=O)CSCc2nc3cccnc3n2C2CCCCC2)cc(OC)c1OC,inactive: -9.62%
22,CCOc1cc(C#N)c(NC(=O)c2cccc(S(=O)(=O)N3CCOCC3)c2)cc1OCC,inactive: -6.95%
23,O=C(CCNS(=O)(=O)c1ccc2c(c1)CCCC(=O)N2)NCc1ccccc1Cl,inactive: 4.94%
24,CCC(=O)N1CCc2cc(CNC(=O)Nc3ccccc3Cl)ccc21,inactive: -1.13%
25,COc1cccc(NC(=O)CN(C)S(=O)(=O)c2cccs2)c1,inactive: 2.66%

row,SMILES,"activity change, negative = inhibition"
1,CC(C(=O)NCc1ccccc1)N1Cc2ccccc2C1=O (centres undefined),inactive: -3.47%
2,CC1CCN(C(=O)CSc2nc(-c3ccc(C(C)C)cc3)no2)CC1,inactive: -10.9%
3,CCc1ccc(NC(=O)c2cc(S(=O)(=O)N3CCCC3)ccc2F)cc1,inactive: 5.95%
4,COc1ccc(CCNC(=O)c2cc(C)nc3c2c(C)nn3-c2ccccc2)cc1OC,inactive: -1.87%
5,Cn1c(CNC(=O)CSc2n[nH]c(-c3ccccc3)n2)nc2ccccc21,inactive: 0.601%
6,CC(C)(C)C1CCc2c(sc(NC(=O)Cn3nnc(-c4cccc(C(F)(F)F)c4)n3)c2C#N)C1 (centres undefined),inactive: 4.09%
7,CCCCCOC(=O)CSc1nc2sc3c(c2c(=O)n1Cc1ccccc1)CC(C)(C)OC3,inactive: 8.61%
8,CCN1CCSc2ccc(C(=O)NCc3cccc(F)c3)cc21,inactive: -3.84%
9,O=C(Cn1c(=O)n(-c2ccc(Cl)cc2)c(=O)c2c3c(sc21)CCC3)c1ccc(F)cc1,inactive: -7.87%
10,CCCCc1nn2c(=O)cc(COC(=O)c3ccc(NC(=O)c4cccs4)cc3)nc2s1,inactive: 0%
11,COc1ccccc1N1CCN(C(=O)CSc2nc3ccccc3nc2Cc2ccc(F)cc2)CC1,inactive: 9.1%
12,COc1ccccc1Cn1c(CNS(=O)(=O)c2ccc3c(c2)CCCC3)nc2cccnc21,inactive: 1.49%
13,Cc1csc2nc(COc3ccc(NC(=O)COc4ccccc4F)cc3)cc(=O)n12,inactive: -7.82%
14,Cc1nc2sccn2c(=O)c1S(=O)(=O)Nc1ccc(N2CCN(S(C)(=O)=O)CC2)cc1,inactive: -3.26%
15,CCC(=O)N1c2ccccc2CC1C(=O)NCCN1CCN(c2cccc(C)c2C)CC1 (centres undefined),inactive: 0%
16,Cc1ccc(-c2nc3ccccc3o2)cc1NC(=O)c1cccc2c(Cl)cccc12,inactive: -0.443%
17,Cc1cccc(Nc2nc(-c3ccccc3)c3cc(C)ccc3n2)c1,inactive: -3.53%
18,O=[N+]([O-])c1cc(-c2nc(-c3ccccc3)no2)ccc1N1CCCC1,inactive: 3.21%
19,Cc1ccccc1NCc1cccn1-c1nnc(N2CCOCC2)s1,inactive: -5.37%
20,CC(C)OCCCn1c(SCC(=O)Nc2ccc(F)cc2)nc2c(sc3ccccc32)c1=O,inactive: -1.33%
21,Cc1ccc(NC(=O)CSc2nnc3[nH]c(=O)cc(C)n23)cc1Cl,inactive: 3.21%
22,COc1cccc(CNC(=O)CCc2nnc3n(CC(C)C)c(=O)c4ccccc4n23)c1,inactive: -0.965%
23,Cc1sc2c(c1C)c(=O)n(-c1ccccc1)c(=O)n2CC(=O)c1ccc(Cl)cc1,inactive: -5.09%
24,CCC(Sc1nc2c(sc3ccccc32)c(=O)n1CCCC(=O)NC1CCCC1)C(=O)Nc1cccc(OC)c1 (centres undefined),inactive: 1.18%
25,CC(C)CC(=O)N1CC(=O)Nc2ccc(F)cc2C1c1ccccc1 (centres undefined),inactive: 0.668%

row,SMILES,"activity change, negative = inhibition"
1,Cc1ccc(OCCSc2nc3ccc(NC(=O)c4ccc5c(c4)OCO5)cc3s2)cc1,inactive: -3.65%
2,COc1ccc(NC(=O)c2cc3c(=O)n(C)c4ccccc4c3s2)cc1Cl,inactive: -0.828%
3,CCOC(=O)C1CCCN(C(=O)c2c(C)nn(-c3ccc(F)cc3)c2-n2cccc2)C1 (centres undefined),inactive: -0.626%
4,O=C(Nc1ccc(F)cc1)C1CCN(c2nc3ccccc3n3cccc23)CC1,inactive: 4.05%
5,CCCc1ccc(OC(=O)CSc2nnc(-c3cccs3)o2)cc1,inactive: 1.56%
6,CCS(=O)(=O)N1CCc2cc(C(=O)Nc3cccc(C)c3C)ccc21,inactive: -6.01%
7,CSc1ccc(CCNC(=O)CCn2c(=O)c3cccn3c3cccnc32)cc1,inactive: 4.99%
8,O=C(NC1(C(F)(F)F)NC(=O)N(CCc2ccccc2)C1=O)c1ccccc1Cl (centres undefined),inactive: -0.291%
9,Cc1cccc(NC(=O)CSc2nnc(N)s2)c1,inactive: 9.98%
10,CC(=O)c1cccc(NCc2ccccc2-c2nnc(-c3ccccc3)o2)c1,inactive: -20.9%
11,CCOc1ccc(S(=O)(=O)N2CCC(N3CCN(Cc4ccc(F)cc4)C(=O)C3=O)CC2)cc1,inactive: 4.23%
12,Cc1nc(-n2nc(C)c(Cc3ccccc3Cl)c2C)sc1C(=O)N1CCC(C)CC1,inactive: -0.257%
13,CCOC(=O)C(CC)Sc1ncnc2sc3c(c12)CCCC3 (centres undefined),inactive: -15.6%
14,O=C(CCn1cccn1)NCc1ccc(Cl)cc1,inactive: -2.13%
15,Cc1cccc(-n2ncc(C(=O)N3CCc4ccccc4C3)c2C2CCN(C(=O)OC(C)(C)C)CC2)c1,inactive: -3.24%
16,Cc1nn2c(=O)cc(COC(=O)c3cccc(NC(=O)COc4ccc(C)c(C)c4)c3)nc2s1,inactive: 12.2%
17,Cc1c(-c2nsc(NC(=O)c3cccs3)n2)nnn1-c1ccc(Cl)cc1,inactive: -8.19%
18,N#Cc1c[nH]n2c(NC3CCCCC3)c(-c3ccccc3F)nc12,inactive: -2.83%
19,CCSc1ncc(Cl)c(C(=O)N(Cc2ccccc2Cl)C2CCS(=O)(=O)C2)n1 (centres undefined),inactive: 2.89%
20,O=C(C1CCN(S(=O)(=O)c2cccs2)CC1)N1CCN(c2cccc(Cl)c2)CC1,inactive: 0.69%
21,O=C(NCCc1ccc(Cl)cc1)C(=O)NCC(c1ccco1)S(=O)(=O)c1cccs1 (centres undefined),inactive: -5.74%
22,CSc1ncc2c(n1)-c1ccccc1N(Cc1ccc(F)cc1)S2(=O)=O,inactive: -0.657%
23,COC(=O)c1nnn(CC(=O)Nc2cc(F)ccc2F)c1C(=O)OC,inactive: -0.621%
24,COc1ccc(OC)c(CNS(=O)(=O)c2ccc3[nH]c4c(c3c2)CCCCC4)c1,inactive: -7.87%
25,O=c1ccc2cc(S(=O)(=O)NCc3ccc(Br)cc3)ccc2[nH]1,inactive: 1.19%

row,SMILES,"activity change, negative = inhibition"
1,Cc1ccc(NC(=O)CSc2nccn2Cc2ccco2)cc1Cl,inactive: 2.88%
2,COc1cccc(NC(=O)CSCc2cc(=O)c3ccc(C)c(C)c3[nH]2)c1,inactive: -0.625%
3,Cn1c(=O)c2c(n3c4ccccc4nc13)NC(=O)CC2c1cccc(F)c1 (centres undefined),inactive: -10.7%
4,CCNc1ccc(-c2nc(-c3ccccn3)no2)cc1[N+](=O)[O-],inactive: 1.31%
5,COc1ccc(-c2onc(C)c2C)cc1S(=O)(=O)NCC(C)c1ccccc1 (centres undefined),inactive: -3.81%
6,Cc1cc(NC(=O)COCc2cc(-c3ccc(F)cc3)on2)ccc1Br,inactive: 0.12%
7,O=C(CCCCn1c(=O)c2ccccc2n(Cc2ccccc2Cl)c1=O)NCc1ccc2c(c1)OCO2,inactive: 7.68%
8,CCOc1ccc(CCNS(=O)(=O)c2c(C)nc3scc(C)n3c2=O)cc1OCC,inactive: -0.0539%
9,CCCn1c2ccccc2c2cnn(CC(=O)N3CCN(c4ccccc4F)CC3)c(=O)c21,inactive: 1.72%
10,CCOc1ccc(CNC(=O)c2ccc3nc(CC)c(CC)nc3c2)cc1,inactive: -1.51%
11,CC(C)Oc1cccc(C(=O)Nc2ccc3oc(-c4cccc(Cl)c4)nc3c2)c1,inactive: -1.79%
12,COc1cccc(N2CCN(C(=O)CCCn3c(=O)[nH]c4ccc(Br)cc4c3=O)CC2)c1,inactive: 11.4%
13,Cc1ccc(Nc2c(-c3ccc(Cl)cc3)nc3sccn23)c(C)c1,inactive: -25.2%
14,Cc1ccc(C)c(NC(=O)N2CCC(CN3CCOCC3)CC2)c1,inactive: -2.37%
15,CCn1c(=O)c2cc(C(=O)NCCCOC)sc2c2ccccc21,inactive: -1.97%
16,Cc1cc(C)n(-c2nc3ccccc3nc2Nc2ccc(Cl)cc2Cl)n1,inactive: 14.7%
17,COc1ccc(CNC(=O)CCC2N=C3c4ccccc4N=C(SCc4cccc(F)c4)N3C2=O)cc1 (centres undefined),inactive: 0.0741%
18,CC(=O)N1CCCc2cc(S(=O)(=O)NCc3cccc(C)c3)ccc21,inactive: -9.86%
19,CCCN(CCC)C(=O)Cn1nnc2sc(-c3ccccc3)cc2c1=O,inactive: -1.71%
20,O=c1c2cnn(-c3ccc(F)cc3)c2ncn1Cc1cccc(Cl)c1,inactive: 2.27%
21,Cc1ccc(C(=O)c2cn(Cc3cccc(C)c3)c3nc(C)ccc3c2=O)cc1,inactive: -1.44%
22,Cc1nn2c(=O)cc(COC(=O)c3cccc(NC(=O)COc4ccccc4Cl)c3)nc2s1,inactive: 0%
23,COc1ccc(NC(=O)Cn2c(=O)n(-c3ccccc3)c(=O)c3c4c(sc32)CCCC4)c(OC)c1,inactive: -4.2%
24,Cc1ccc(CNC(=O)c2nc(SCc3ccc(F)cc3)ncc2Cl)cc1,inactive: 2.33%

# Reference: PubChem BioAssay AID493208 (National Center for Advancing Translational Sciences (NCATS), 2011)
